Data on 20 molecules can be found in paper PMC9911399, “Two distinct binding modes provide the RNA-binding protein RbFox with extraordinary sequence specificity”.

The labels stand for the following.
T1: RBFOX1 RRM RbFoxmut (Fox-RRM*) (Homo sapiens, UniProt Q9NWB1 109-208, R118D;E147R;N151S;E152T)
T1 sequence: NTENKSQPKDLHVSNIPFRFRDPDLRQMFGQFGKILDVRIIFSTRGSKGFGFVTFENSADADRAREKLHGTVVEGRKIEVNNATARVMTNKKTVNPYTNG

B1: CUGAACU (DNA:RNA)
RNA: GGGAGACCGGAAUUCAGAUUGUCCCUGAACUUUAAAUCCCGUCGUAGCCACCA
DNA 1: CAATCTGAATTCCGGTCTCCC
DNA 2: TGGTGGCTACGACGGGATT
B2: CAGAGCA (DNA:RNA)
RNA: B1 RNA with U26A, A29G, U31A
DNA 1: CAATCTGAATTCCGGTCTCCC
DNA 2: TGGTGGCTACGACGGGATT
B3: CCGUUCA (DNA:RNA)
RNA: B1 RNA with U26C, A28U, A29U, U31A
DNA 1: CAATCTGAATTCCGGTCTCCC
DNA 2: TGGTGGCTACGACGGGATT
B4: AUAACCC (DNA:RNA)
RNA: B1 RNA with C25A, G27A, A29C, U31C
DNA 1: CAATCTGAATTCCGGTCTCCC
DNA 2: TGGTGGCTACGACGGGATT
B5: GCUCGUC (DNA:RNA)
RNA: GGGAGACCGGAAUUCAGAUUGUCCGCUCGUCUUAAAUCCCGUCGUAGCCACCA
DNA 1: CAATCTGAATTCCGGTCTCCC
DNA 2: TGGTGGCTACGACGGGATT
B6: UCUUUCC (DNA:RNA)
RNA: B5 RNA with G25U, C28U, G29U, U30C
DNA 1: CAATCTGAATTCCGGTCTCCC
DNA 2: TGGTGGCTACGACGGGATT
B7: CCGAGAU (DNA:RNA)
RNA: B1 RNA with U26C, A29G, C30A
DNA 1: CAATCTGAATTCCGGTCTCCC
DNA 2: TGGTGGCTACGACGGGATT
B8: CCCGGGC (DNA:RNA)
RNA: B5 RNA with G25C, U27C, C28G, U30G
DNA 1: CAATCTGAATTCCGGTCTCCC
DNA 2: TGGTGGCTACGACGGGATT
B9: AGACUGC (DNA:RNA)
RNA: B5 RNA with G25A, C26G, U27A, G29U, U30G
DNA 1: CAATCTGAATTCCGGTCTCCC
DNA 2: TGGTGGCTACGACGGGATT
B10: AGAUCUU (DNA:RNA)
RNA: B1 RNA with C25A, U26G, G27A, A28U, A29C, C30U
DNA 1: CAATCTGAATTCCGGTCTCCC
DNA 2: TGGTGGCTACGACGGGATT
B11: UCCCGAC (DNA:RNA)
RNA: B5 RNA with G25U, U27C, U30A
DNA 1: CAATCTGAATTCCGGTCTCCC
DNA 2: TGGTGGCTACGACGGGATT
B12: GGGUGGC (DNA:RNA)
RNA: B5 RNA with C26G, U27G, C28U, U30G
DNA 1: CAATCTGAATTCCGGTCTCCC
DNA 2: TGGTGGCTACGACGGGATT
B13: GGCCUUU (DNA:RNA)
RNA: B5 RNA with C26G, U27C, G29U, C31U
DNA 1: CAATCTGAATTCCGGTCTCCC
DNA 2: TGGTGGCTACGACGGGATT
B14: UUUGCUG (DNA:RNA)
RNA: B5 RNA with G25U, C26U, C28G, G29C, C31G
DNA 1: CAATCTGAATTCCGGTCTCCC
DNA 2: TGGTGGCTACGACGGGATT
B15: GUCCACU (DNA:RNA)
RNA: B1 RNA with C25G, G27C, A28C
DNA 1: CAATCTGAATTCCGGTCTCCC
DNA 2: TGGTGGCTACGACGGGATT
B16: GUAGCCG (DNA:RNA)
RNA: B1 RNA with C25G, G27A, A28G, A29C, U31G
DNA 1: CAATCTGAATTCCGGTCTCCC
DNA 2: TGGTGGCTACGACGGGATT
B17: AGGCGAU (DNA:RNA)
RNA: B1 RNA with C25A, U26G, A28C, A29G, C30A
DNA 1: CAATCTGAATTCCGGTCTCCC
DNA 2: TGGTGGCTACGACGGGATT
B18: UCCAGCU (DNA:RNA)
RNA: B1 RNA with C25U, U26C, G27C, A29G
DNA 1: CAATCTGAATTCCGGTCTCCC
DNA 2: TGGTGGCTACGACGGGATT
B19: ACCUUCU (DNA:RNA)
RNA: B1 RNA with C25A, U26C, G27C, A28U, A29U
DNA 1: CAATCTGAATTCCGGTCTCCC
DNA 2: TGGTGGCTACGACGGGATT
B20: UGCGGGU (DNA:RNA)
RNA: B1 RNA with C25U, U26G, G27C, A28G, A29G, C30G
DNA 1: CAATCTGAATTCCGGTCTCCC
DNA 2: TGGTGGCTACGACGGGATT

Substitutions are numbered along the chain they refer to; changes in the protein carry UniProt numbers. This is one part of the list.

The test has as its target T1, RBFOX1 RRM RbFoxmut (Fox-RRM*). The test can be described thus: EMSA; HiTS-Eq, 1 nM pool, 10 min; buffer printed only for the single-RNA assays: 10 mM Tris pH 7.5, 150 mM NaCl, 3.4 mM EDTA, 0.001% NP-40, 30 C. The settings on record: tags: His6 N-terminal (pET28a); label: 5' 32P. The gist of the method:
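These values rest on relative association constants, computed from read-count changes of each RNA species versus the control reaction and normalised to the cognate motif. Reads came from free RNA recovered by 8% native PAGE after purified RbFox RRM (wild type or mutant) at increasing concentrations was equilibrated for 10 min in 50 µL with 1 nM of a 5′-radiolabelled pool with 7 randomized nucleotides and DNA-annealed flanks.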
(A gel shift assay detects complexes by their altered migration in electrophoresis.)
On to B1, for which the binding signal is 0.0766 KA relative to UGCAUGU.

Turning to B2, the binding signal was 0.101 KA relative to UGCAUGU. To B3 belongs 0.124 KA relative to UGCAUGU; to B4, 0.0834 KA relative to UGCAUGU. On to B5, for which the binding signal was 0.127 KA relative to UGCAUGU.

B6: the binding signal was 0.0389 KA relative to UGCAUGU. To B7 belongs 0.096 KA relative to UGCAUGU. Regarding B8, the binding signal is 0.0607 KA relative to UGCAUGU. To B9 belongs 0.0825 KA relative to UGCAUGU. For B10, the binding signal was 0.0706 KA relative to UGCAUGU.

Take B11: the binding signal was 0.0609 KA relative to UGCAUGU. B12: the binding signal was 0.122 KA relative to UGCAUGU.

Turning to B13, the binding signal is 0.057 KA relative to UGCAUGU. To B14 belongs 0.133 KA relative to UGCAUGU; to B15, 0.0788 KA relative to UGCAUGU. With B16, the binding signal is 0.116 KA relative to UGCAUGU.

In the case of B17, the binding signal is 0.0529 KA relative to UGCAUGU.

For the molecule B18, the binding signal was 0.0685 KA relative to UGCAUGU. To B19 belongs 0.0463 KA relative to UGCAUGU; to B20, 0.0971 KA relative to UGCAUGU.
